The list shows a part of the results.
Key:
HSkMC = human skeletal muscle cells; assay: cytotoxicity call (relative viability < 0.9); details: 10 µM
HepG2 = assay: cytotoxicity call (relative viability < 0.9); details: 10 µM
S. aureus RN4220 = assay: growth inhibition call (relative growth <= 0.2); details: 50 µM

Structure (SMILES)	cytotoxicity call (HSkMC)	cytotoxicity call (HepG2)	growth inhibition call (S. aureus RN4220)
C[C@@H]1CN([C@@H](C)CO)C(=O)c2cc(C#CCc3ccccc3)cnc2O[C@@H]1CN(C)CC1CCOCC1	inactive	inactive	inactive
O=C(N/N=C/[C@H](O)[C@@H](O)[C@@H](O)[C@H](O)C(=O)O)c1ccccc1O	inactive	active	inactive
C[C@H](CO)N1C[C@H](C)[C@@H](CN(C)Cc2ccc(Oc3ccccc3)cc2)OCc2ccccc2-c2ccccc2C1=O	inactive	inactive	inactive
C[C@@H]1CCCCO[C@@H](CN(C)C(=O)Nc2cccc3ccccc23)[C@H](C)CN([C@H](C)CO)C(=O)c2cc(NS(=O)(=O)c3cccs3)ccc2O1	inactive	inactive	inactive
Cc1noc(C)c1S(=O)(=O)Nc1ccc2c(c1)CC(=O)N([C@@H](C)CO)C[C@H](C)[C@@H](CN(C)S(C)(=O)=O)O2	inactive	inactive	inactive
NC(=NC(=O)N1CCOCC1)c1ccccc1	inactive	inactive	inactive
Cc1noc(C)c1NC(=O)Nc1ccc2c(c1)CC(=O)N([C@@H](C)CO)C[C@H](C)[C@H](CN(C)C(=O)Nc1ccc(C(F)(F)F)cc1)O2	inactive	inactive	inactive
CO[C@H](CN(C)S(=O)(=O)c1cccc(Cl)c1)[C@H](C)CN([C@H](C)CO)S(=O)(=O)c1ccc(Cl)cc1	inactive	inactive	inactive
C[C@@]1(O)[C@H](O)[C@@H](CO)O[C@H]1n1ccc(N)nc1=O	inactive	inactive	inactive
CC(C)NC(=O)Nc1ccc2c(c1)CC(=O)N([C@H](C)CO)C[C@@H](C)[C@@H](CN(C)S(=O)(=O)c1cn(C)cn1)O2	inactive	inactive	inactive
COc1ccc(S(=O)(=O)Nc2ccc3c(c2)C(=O)N([C@@H](C)CO)C[C@H](C)[C@H](CN(C)C(=O)Nc2cccc4ccccc24)OCCCC[C@@H](C)O3)cc1	inactive	inactive	inactive
c1cc(CNCCN2CCOCC2)ccn1	inactive	inactive	inactive
C[C@@H]1CCCCO[C@H](CN(C)C(=O)Nc2ccc(F)cc2)[C@@H](C)CN([C@@H](C)CO)C(=O)c2cc(NC(=O)C3CCCCC3)ccc2O1	inactive	inactive	inactive
Cc1noc(C)c1NC(=O)N(C)C[C@@H]1Oc2ccc(NS(C)(=O)=O)cc2CC(=O)N([C@H](C)CO)C[C@@H]1C	inactive	inactive	inactive
C[C@@H]1CN([C@@H](C)CO)C(=O)c2cc(C#CCN(C)C)cnc2O[C@H]1CN(C)S(=O)(=O)c1cn(C)cn1	inactive	inactive	inactive
C[C@H]1CCCCO[C@H](CN(C)Cc2ccc(C(=O)Nc3ccccc3N)cc2)[C@@H](C)CN([C@@H](C)CO)C(=O)c2cc(N(C)C)ccc2O1	inactive	inactive	inactive
CN1CCN(C(=O)C[C@@H]2CC[C@H]3[C@@H](COC[C@H](O)CN3S(=O)(=O)c3cccc(Cl)c3)O2)CC1	inactive	inactive	inactive
COc1ccc(NC(=O)N(C)C[C@@H]2Oc3ccc(NS(=O)(=O)c4c(C)noc4C)cc3C(=O)N([C@H](C)CO)C[C@@H]2C)cc1	inactive	inactive	inactive
C[C@@H]1CCCCO[C@H](CN(C)C(=O)Nc2ccccc2)[C@H](C)CN([C@H](C)CO)C(=O)c2cc(NS(=O)(=O)c3cccs3)ccc2O1	inactive	inactive	inactive
CCc1nc(C(N)=O)c(Nc2ccc(N3CCC(N4CCN(C)CC4)CC3)c(OC)c2)nc1NC1CCOCC1	inactive	active	inactive
C[C@@H]1CCCCO[C@@H](CN(C)S(=O)(=O)c2cn(C)cn2)[C@H](C)CN([C@H](C)CO)C(=O)c2cc(NS(C)(=O)=O)ccc2O1	inactive	inactive	inactive
O=C1NCCN2CCN(C(=O)Cn3cccc3)C[C@@H]12	inactive	inactive	inactive
COCC(=O)Nc1ccc2c(c1)OC[C@@H](C)N(C(=O)Cc1cccnc1)C[C@H](C)[C@H](OC)CN(C)C2=O	inactive	inactive	inactive
Cc1c(OCC(F)(F)F)ccnc1CS(=O)c1nc2ccccc2[nH]1 (centres undefined)	inactive	inactive	inactive
C[C@H](CO)N1C[C@H](C)[C@@H](CN(C)C(=O)C2CCOCC2)Oc2ncc(-c3cccc(C#N)c3)cc2C1=O	inactive	inactive	inactive
O=C([O-])C1=C(CSc2nnnn2CS(=O)(=O)[O-])CSC2C(NC(=O)C(O)c3ccccc3)C(=O)N12.[Na+].[Na+] (centres undefined)	inactive	inactive	active
CO[C@@H]1CN(C)C(=O)c2cc(NS(=O)(=O)CC(F)(F)F)ccc2OC[C@@H](C)N(Cc2ccccn2)C[C@H]1C	inactive	inactive	inactive
C[C@H](CO)N1C[C@H](C)[C@@H](CN(C)Cc2cccc(C(=O)Nc3ccccc3N)c2)OCc2ccccc2-c2c(n(C)c3ccccc23)C1=O	inactive	inactive	inactive

Source: the antibiotic and cytotoxicity screens of Wong et al. (2023)
